The other results are listed elsewhere or left out.

For the experiment, the system named is PfAP2-HC AP2 domain (GST-tagged). Briefly: gcPBM binding intensity (ln(normalized median fluorescence intensity)); higher = stronger DNA binding. A digest of the protocol:
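Binding intensity values are the highest Masliner-normalised natural-log median intensity among replicate spots of either probe orientation. The binding step lasted 1 h in 1× PBS with 1% milk, 0.2 mg/ml BSA, 0.5% salmon testes DNA and 0.03% Triton X-100, using GST-tagged P. falciparum DNA-binding domains expressed in E. coli on an Agilent 4 × 180k array of primer-extended double-stranded 36-bp intergenic genomic probes plus negative controls. Alexa488 anti-GST antibody and a 488 nm scan detected bound protein.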
Take “AAGAAGAAACGGAAAAGTACAAAGAAGAAATAAGTA [XGTACX_site3680]”: the “gcPBM binding intensity (ln)” value came out at 9.76.

“CTTACAGACATATATACACACATGTATATTTTATAT [CACACA_site549]”: the “gcPBM binding intensity (ln)” value turned out to be 9.96.

For “TTTTCTTTTCTCTTCTTTTTCTCCCATTATTAATCT [XGTACX_negctrl_site406]”, the “gcPBM binding intensity (ln)” value was 9.55.

With “ATGTTTTTAATTTATTGTACATTAATTTGTATTATT [XGTACX_site253]”, the “gcPBM binding intensity (ln)” value worked out at 10.

For “GAGGATGCCTATGGCACACATTATAAAACTGTCGCT [CACACA_site4322]”, the “gcPBM binding intensity (ln)” value was 9.6.

As to “TTTTTATTATTTAAATGTACATATAAATATATATAT [XGTACX_site6870]”, the “gcPBM binding intensity (ln)” value turned out to be 9.61.

With “ATATTTTATATGTTCACACATACATAAACATATTTT [CACACA_site4948]”, the “gcPBM binding intensity (ln)” value worked out at 9.75.

As to “GAATAAAAATTTTAATGTACATATTTTTTATTTATA [XGTACX_site8935]”, the “gcPBM binding intensity (ln)” value was 9.54.

As for “GGTAGTTATTATCTCCGTACTTATAAAGAAAAAAGG [XGTACX_site4674]”, the “gcPBM binding intensity (ln)” value was determined as 9.51.

As to “TACAAATATATAAAATGTACATATATATACATATTA [XGTACX_site3029]”, the “gcPBM binding intensity (ln)” value amounted to 9.62.

Take “TTTATTTTCATATGAACACACATATAAATATTATAA [CACACA_site7172]”: the “gcPBM binding intensity (ln)” value stood at 9.64.

Take “CATAAAATTGTGAAGTGTACATATTTTTAAATATAA [XGTACX_site8986]”: the “gcPBM binding intensity (ln)” value was 9.69.

With “ATAACTTTATTTTCCTGTACACACATTTGACATATT [XGTACX_site7192]”, the “gcPBM binding intensity (ln)” value came to 10.5.

Regarding “ATATATAATATAAGATGTACAATAAAATCTATATAT [XGTACX_site546]”, the “gcPBM binding intensity (ln)” value came to 9.67.

With “AGAAATATCTAATTGTGTACTCAAGAAAAAGTTACG [XGTACX_site372]”, the “gcPBM binding intensity (ln)” value was found to be 9.59.

With “TTAATATAAATATGATTTTTGATTCCTATACTATTT [CACACA_negctrl_site752]”, the “gcPBM binding intensity (ln)” value amounted to 9.63.

On to “TTGTATTCATATGGTTGTACATATTAAAAGTTCTAA [XGTACX_site7255]”, for which the “gcPBM binding intensity (ln)” value was 9.36.

For the sequence “ATAAGGTTACAACAAACACACAAAGGAATATACGCA [CACACA_site4090]”, the “gcPBM binding intensity (ln)” value is 10.5.

As for “AAGAAGAATAGGCGTTGTACGGAATGTAGTAGAGTT [XGTACX_site2430]”, the “gcPBM binding intensity (ln)” value was 9.93.

On to “ATACGACAAATATAAAGTACAAGCTTGGTTTTTATA [XGTACX_site8103]”, for which the “gcPBM binding intensity (ln)” value stood at 9.68.

Take “TATGCAAGGAACCACACACACACACGGAAATGTATA [CACACA_site6490]”: the “gcPBM binding intensity (ln)” value was found to be 10.9.

For the sequence “AATTATGGGGAAAAGACACACATATATATATATATA [CACACA_site2589]”, the “gcPBM binding intensity (ln)” value came to 9.79.

As to “TTATATATATATGTATGTACTTATAACTTTTATTAG [XGTACX_site3190]”, the “gcPBM binding intensity (ln)” value came out at 9.6.

As to “ATTCTATAGAAACACACACACATGCATGCACCTATA [CACACA_site107]”, the “gcPBM binding intensity (ln)” value was found to be 10.7.

On to “TTTATTTTTAAAGGCACACACATTTTTATTTTTAAA [CACACA_site2021]”, for which the “gcPBM binding intensity (ln)” value was 9.83.

Take “TTCTTTTTTTTCAGTTGTACTTATAAGAAAGAAAAA [XGTACX_site4028]”: the “gcPBM binding intensity (ln)” value was found to be 9.11.

For the sequence “TTTATTTATAGAATTACACACATATATACACAAATG [CACACA_site7338]”, the “gcPBM binding intensity (ln)” value is 9.81.

As for ATATATATAACAAAAGTGCATTAAGGGGATGCTATA, the “gcPBM binding intensity (ln)” value stood at 9.68.

For the sequence “TTATTATAAATAGGTAGTACATTTTGAACAAATATT [XGTACX_site8866]”, the “gcPBM binding intensity (ln)” value was found to be 9.47.

In the case of “AATATAAATATAGGAAATGTAGTTAAAAGGTGTATG [CACACA_negctrl_site1233]”, the “gcPBM binding intensity (ln)” value amounted to 9.9.

Consider “TTTTATATATTCAATTGTACATGTATTTTTTTTTTT [XGTACX_site3584]”, for which the “gcPBM binding intensity (ln)” value is 9.76.

On to “CAAAGACACAAACACACACACACATACATACATACA [CACACA_site453]”, for which the “gcPBM binding intensity (ln)” value was determined as 11.3.

Consider “TATGGGTATGTATTCACACATAACAAAAATATCAAA [CACACA_site5059]”, for which the “gcPBM binding intensity (ln)” value came out at 9.75.

As to “ATATATATATATAACACACGCAAAAAAATTAAATAA [CACACA_site1400]”, the “gcPBM binding intensity (ln)” value turned out to be 9.91.

Take “TATACTGATAAAAAAAGTACTAGAGTTTGTAAAAAT [XGTACX_site3934]”: the “gcPBM binding intensity (ln)” value was determined as 9.66.

Turning to “CACAAGAAAGTTCACACACACACATATATATATATA [CACACA_site6009]”, the “gcPBM binding intensity (ln)” value was found to be 10.1.

For the sequence “TTATATGTCAATTTGCGTACATACATAATTACATAT [XGTACX_site1546]”, the “gcPBM binding intensity (ln)” value was determined as 9.9.

In the case of “AATTTTAATTTTTTGACACACATATAATATATATAT [CACACA_site3978]”, the “gcPBM binding intensity (ln)” value was found to be 9.78.

For the sequence “ATAAATTTACTTGATTGTACATTTCTTAGTTGTATT [XGTACX_site3057]”, the “gcPBM binding intensity (ln)” value was 9.75.

Turning to “ATTATCTTCAAGTATGTACACACTATATATAATAAA [CACACA_site2441]”, the “gcPBM binding intensity (ln)” value amounted to 9.79.

With “CTGAGGAAGCTAATTACACACATGCATATTTTTTTT [CACACA_site2177]”, the “gcPBM binding intensity (ln)” value worked out at 9.92.

For “ATCAAACAAAAAATAAAAAAATGCGACATGTGTACA [TGCATGCA_negctrl_site164]”, the “gcPBM binding intensity (ln)” value is 9.81.

As to “GAAAATTATGTATATTGTACAAATATTATATTAAAT [XGTACX_site2467]”, the “gcPBM binding intensity (ln)” value amounted to 9.57.

As to “TTAATATTTTTAATTTGTACATATAATTAAATCTCT [XGTACX_site1736]”, the “gcPBM binding intensity (ln)” value was found to be 9.55.

For “TATAAAATTTAAATTATACACACTTAAGTAACATCA [CACACA_site531]”, the “gcPBM binding intensity (ln)” value was found to be 9.68.

(Values after the supplement of paper PMC11417369.)
